# From the supplement of paper PMC3334620
# The full ranking holds about 33,000 sequences; the median of “E-score (-0.5 to 0.5)” is about -0.012, and the highest 2% start at about 0.27. The list shows a part of the results.
# Target: T1, Vhr1 (UniProt P40522)
# T1 sequence: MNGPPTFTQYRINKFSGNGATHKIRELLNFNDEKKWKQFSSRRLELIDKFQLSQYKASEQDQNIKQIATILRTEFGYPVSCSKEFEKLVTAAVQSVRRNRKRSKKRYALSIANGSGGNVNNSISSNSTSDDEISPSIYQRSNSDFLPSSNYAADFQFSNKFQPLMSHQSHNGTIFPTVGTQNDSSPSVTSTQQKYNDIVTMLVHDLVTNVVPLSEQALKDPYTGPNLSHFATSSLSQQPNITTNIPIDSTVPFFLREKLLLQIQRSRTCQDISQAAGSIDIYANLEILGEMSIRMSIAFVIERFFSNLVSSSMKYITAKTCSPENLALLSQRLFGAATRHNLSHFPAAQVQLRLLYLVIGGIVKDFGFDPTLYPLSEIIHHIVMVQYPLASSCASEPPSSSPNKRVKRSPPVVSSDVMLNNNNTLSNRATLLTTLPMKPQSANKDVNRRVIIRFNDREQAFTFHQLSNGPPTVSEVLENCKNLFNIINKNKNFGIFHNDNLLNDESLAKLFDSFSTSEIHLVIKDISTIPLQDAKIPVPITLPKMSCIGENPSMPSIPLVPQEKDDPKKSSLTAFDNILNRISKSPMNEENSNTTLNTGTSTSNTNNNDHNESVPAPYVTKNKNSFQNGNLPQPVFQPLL
# Test: PBM E-score (8-mer binding enrichment) (E-score (-0.5 to 0.5)); higher = stronger / more preferred TF binding; most listed sequences are background and not binding sites
# Conditions: protein concentration: 200 nM; construct: GST-full length
# Outline: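 Universal all-10-mer Agilent arrays, double-stranded by primer extension on fresh or once-stripped slides, were probed with about 100-200 nM GST-tagged yeast transcription factors made by PURExpress. Fluorescent anti-GST detected bound protein, and masliner normalised the scans. E-scores from the Universal PBM Analysis Suite were given to each ungapped eight-base word pooled with its reverse complement.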
row,Sequence,PBM E-score
1,TGTGAAAA,-0.194
2,ACATATAG,0.11
3,AAGGAACT,-0.158
4,AGTATTGA,0.171
5,CCTCTGCG,-0.126
6,AAACGACA,0.138
7,ACGTAAAG,-0.194
8,GAAGCAGC,-0.15
9,AGGTAGCC,-0.102
10,CATCGGCC,-0.126
11,CATATTGC,0.0133
12,ACAGCCTG,-0.149
13,CGGCACAC,0.2
14,CATGATGG,0.139
15,GGTAGCAA,-0.213
16,AGTTAGAC,-0.0147
17,ATAGATCA,0.101
18,CTGGCAAC,-0.142
19,AGTCAGAA,0.18
20,TATCTAGA,-0.0402
21,ATTGTTGA,0.0702
22,AAGTAGTG,0.00973

row,Sequence,PBM E-score
1,ATAACACA,0.237
2,ATGCAAGC,-0.0788
3,CCGGATGC,-0.134
4,AAGGAGAA,-0.0752
5,ATACTCTG,0.00605
6,ATAGTTGA,0.0409
7,ACCCAACA,0.0667
8,CTTGATTC,0.214
9,ACGAAGAG,-0.0471
10,AGAGCTAA,-0.17
11,ACGCTACT,0.0842
12,ATTTATAA,0.075
13,CAGGCAGC,-0.142
14,AGATCATC,-0.12
15,ATCTAATC,0.0096
16,CTTGAGTA,0.0408
17,ACAGAAGG,-0.108
18,CTAGTAAG,-0.199
19,AGTAACAC,0.0963
20,CTCGGGAA,0.116
21,CTAGCGCA,-0.0626
22,CCAGACTA,0.145

row,Sequence,PBM E-score
1,TACATGTA,0.0887
2,CCCCCCAC,-0.288
3,CCAATTAG,0.125
4,ATGGGACC,-0.0308
5,CAGGGAGC,-0.0332
6,CATAACTA,0.118
7,GAGGAGAA,-0.299
8,CGGGTACG,-0.0468
9,CTTAGCCA,0.164
10,CTCAGTGC,0.0631
11,CAGAGCTA,-0.21
12,AAAAGATT,-0.224
13,CGCACAAG,-0.0473
14,GGTGCCTA,-0.145
15,CAATACAA,0.187
16,CACATTTC,0.0771
17,CCTAGGAG,-0.0958
18,ATCGGAAG,-0.0183
19,TAATAGTA,0.105
20,GGGCGGAA,0.0255
21,AACGGACT,-0.348
22,ACGGCACA,0.0246

row,Sequence,PBM E-score
1,ACATCCAA,0.133
2,GTCCTCCA,0.0132
3,GTTTATTA,0.255
4,CCCTAAAA,-0.219
5,GTCGGCCA,-0.101
6,ACCAAGCG,0.032
7,CCGATCAA,-0.0603
8,GGATGAAC,-0.0744
9,AAGGCGAG,-0.0946
10,GTTGAAAA,-0.19
11,ATGGCCAC,-0.164
12,TAAGAGGA,-0.121
13,ATGAAAAT,-0.0304
14,CAGTTCAG,-0.0035
15,AAAATTAC,-0.0551
16,CTGTAAGA,-0.186
17,CCGTCTAA,-0.138
18,AGTGACTA,0.367
19,ACAGATGC,-0.229
20,CGACTGCA,0.144
